From the supplement of paper PMC7826260
This is one part of the list. The data describe in vitro nicking of single-stranded DNA by Rep domains for 1 h at 37 °C with 3 µM enzyme; only the middle of the 90-letter strands is printed. Numbers give uncut DNA relative to the enzyme-free pool, as log2; strong cutting gives strongly negative numbers. There is no active / inactive call. Counts are relative to all reads, so uncut sequences can rise above 0 when many others are cut.

test system: T1, Rep nickase domain of tomato golden mosaic virus; assay: uncleaved DNA left, log2 of reads against the no-enzyme library (log2 ratio); higher = less cleavage (more negative = more Rep cleavage of the k-mer); sequences stand for … in CTCGTCCG…ACCGGAGA
T1 sequence (residues 1-124, tag not shown): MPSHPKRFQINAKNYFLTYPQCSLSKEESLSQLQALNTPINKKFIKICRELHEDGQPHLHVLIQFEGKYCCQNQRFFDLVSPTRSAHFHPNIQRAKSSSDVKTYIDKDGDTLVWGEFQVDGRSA
Description: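 A pool of 90-nt single-stranded DNAs with seven random bases just before the constant AC of the nick site (name = the seven bases) was cut by 3 µM recombinant His6-SUMO-tagged Rep nickase domain (300 nM DNA, 50 mM HEPES pH 8.0, 50 mM NaCl, 1 mM MnCl2, 1 h, 37 °C, three replicates). Uncut DNA was amplified and sequenced.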

| Sequence | uncleaved DNA left (log2) |
| --- | --- |
| GTTTACT | 0.0817 |
| TAACCAC | -0.0968 |
| GGTGGAG | 0.0453 |
| AAGGGAG | 0.221 |
| GTCCGCG | 0.0482 |
| GTCCCTT | 0.138 |
| CGGTTTA | -0.048 |
| AGTTGGC | 0.135 |
| CTACTGT | -0.171 |
| GGCCCAC | 0.123 |
| TCGTGAG | 0.101 |
| TCACTAT | -0.1 |
| CACCTCC | -0.227 |
| GGAAACA | 0.0858 |
| CGTGGAG | -0.084 |
| ATCAGGC | 0.0641 |
| CCCATCA | 0.0416 |
| TTACGGG | -0.181 |
| ATACACA | 0.132 |
| CACTGAT | -0.17 |

| Sequence | uncleaved DNA left (log2) |
| --- | --- |
| AAATAAG | 0.0463 |
| TACCAGC | 0.000808 |
| GATCTCG | -0.00446 |
| TTCATTG | -0.0583 |
| GGTGCAC | -0.00415 |
| GCGTAAT | -0.0301 |
| TATATCG | -0.0909 |
| CTGGACG | 0.132 |
| GGGCATT | 0.000197 |
| TCCCCCG | -0.191 |
| CTCCCAA | -0.029 |
| CAGTGCC | -0.0566 |
| TCAAGGA | 0.264 |
| CACTCGA | -0.0108 |
| GTCTCCA | 0.0665 |
| GATTCTA | 0.0202 |
| GGGCGGG | 0.12 |
| CGCAGAG | -0.0255 |
| CGACGCC | -0.0246 |
| GTCACAG | 0.0841 |
